In PubChem BioAssay AID686978 (National Center for Advancing Translational Sciences (NCATS), 2013):
The whole screen tested about 420,000 compounds, of which about 64,000 (15%) were called active. Inconclusive results, whose numbers are uncertain, are shown with a selection of clear calls. Calls follow the shape of the dose curve; as a rule, active = well fitted inhibition curve with a large enough effect; inconclusive = small, poorly fitted or top-dose-only effect; inactive = flat fitted curve, though single readings scatter. Potencies of inconclusive entries are left out as doubtful fits.
% is scaled to controls: 0 for no effect and ±100 for the full control effect; potency is read from the fitted curve at half-maximal effect; tags tell the direction and shape of the fitted curve.

Assay: qHTS for Inhibitors of human tyrosyl-DNA phosphodiesterase 1 (TDP1): qHTS in cells in absence of CPT; also: nearly all actives have a fitted effect of over 55% in size
Details: DT40 Tdp1-/- hTDP1 cells, no CPT, ATP luminescence, 48 h; activity change, negative = growth inhibition: at 46.2 µM (top of the series) unless noted
How it was run: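 No-CPT arm: Tdp1-/-;hTDP1 DT40 cells (400/well) plus compounds, incubated ≥48 hr at 37 °C. Readout CellTiter-Glo luminescence.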
With `COc1cc(C(=O)Nc2sc(C)c(C)c2C(=O)O)cc(OC)c1OC` the Potency was inconclusive [inhibitor, partial curve, poor fit].
For `O=C(c1ccccc1)N1CCN(c2ccc(Cl)cc2)CC1`, the Potency was inconclusive [inhibitor, partial curve].
In the case of `Cc1ccc(N2CC(C(=O)Nc3nnc(SCCN4CCOCC4)s3)CC2=O)cc1` (stereo not given), the “activity change, negative = growth inhibition” value is reported as inactive: 8.21%.
For `CC1=NN(c2nc(-c3ccc(C)cc3)cs2)C(=O)C1N=Nc1ccccc1O` (stereo not given), the Potency was active: 4.61 µM.
In the case of `COc1ccccc1-c1nnc(SCC(=O)O)n1-c1ccccc1`, the “activity change, negative = growth inhibition” value is reported as inactive: -4.5%.
With `COc1ccc(C(CC(=O)Nc2cc(C)ccn2)N2Cc3ccccc3C2=O)cc1` (stereo not given) the Potency was active: 13 µM.
In the case of `COc1cc(/C=N/NC(=O)c2cc3ccccc3cc2O)ccc1OCCN1CCCCC1`, the Potency is reported as inconclusive [inhibitor, single point].
For `CCOc1ccc(C(=O)COC(=O)c2c(-c3ccccc3)noc2C)cc1`, the Potency was active: 20.6 µM.
For `Cc1cc(C)c2[nH]c(O)c(N=NC3=NC(=O)CS3)c2c1`, the Potency was inconclusive [inhibitor, partial curve, poor fit].
With `CSc1ccc(CN2CCCC(N3CCN(c4ccccc4)CC3)C2)cc1` (stereo not given) the Potency was inconclusive [inhibitor, single point].
With `COc1cc(NC(=O)C(C)Oc2ccccc2)c(OC)cc1NC(=O)c1ccccc1` (stereo not given) the Potency was inconclusive [inhibitor, single point].
With `COc1cc2c(cc1NC(=O)CSc1nnc(Cc3cccs3)n1C)oc1ccccc12` the Potency was inconclusive [inhibitor, single point].
With `O=C(COC(=O)c1cnccn1)c1ccc(-c2ccccc2)cc1` the “activity change, negative = growth inhibition” value was inactive: -2.78%.
With `CCc1nc2ccc(C(=O)Nc3cccc(OC)c3)cn2c1N(C)Cc1ccc(OC)cc1` the Potency was inconclusive [inhibitor, single point].
For `Cc1nc(Cl)c2oc3ccccc3c2n1`, the “activity change, negative = growth inhibition” value was inactive: 10.8%.
For `COC(=O)c1ccc(NC(=O)CN2CCN(S(=O)(=O)c3ccc(Br)cc3)CC2)cc1`, the Potency was active: 18.4 µM.
With `COc1cc(OC)cc(C(=O)NCCSc2c[nH]c3ccccc23)c1` the Potency was inconclusive [inhibitor, single point].
For `CSc1ccc(/C=N/NC(=O)COc2ccc(Br)cc2Cl)cc1`, the Potency was inconclusive [inhibitor, single point].
For `O=C(CCN1C(=O)/C(=C/c2cccs2)SC1=S)Nc1ccc(O)cc1`, the Potency was inconclusive [inhibitor, single point].
In the case of `CCOC(=O)C1=C(COC(=O)c2ccc([N+](=O)[O-])s2)NC(=O)NC1C` (stereo not given), the Potency is reported as inconclusive [inhibitor, full curve, poor fit].
With `Cc1ccc(Cn2c(CN3CC(C)OC(C)C3)nc3c2c(=O)[nH]c(=O)n3C)cc1` (stereo not given) the “activity change, negative = growth inhibition” value was inactive: -15.2%.
With `CCOc1cc(-c2c(C#N)c(N)nc3c2CCCC3C)ccc1O` (stereo not given) the Potency was inconclusive [inhibitor, full curve].
In the case of `O=C(Nc1ccccc1N1CCCCC1)c1ccc(F)cc1`, the Potency is reported as inconclusive [inhibitor, partial curve, poor fit].
With `O=C(NCCCN1CCCC1)c1ccc(CS(=O)(=O)c2ccc(Br)cc2)o1` the Potency was inconclusive [inhibitor, single point].
For `c1ccc(NC2=NCCN2CCC2CCCCC2)cc1`, the Potency was inconclusive [inhibitor, partial curve].
With `C[C@@H]1CC(=O)NN=C1c1ccc(NN=C(C#N)C#N)cc1` the Potency was active: 9.44 µM.
With `Clc1ccc(C2=CSC3=NCCN23)c(Cl)c1` the “activity change, negative = growth inhibition” value was inactive: -10.2%.
In the case of `Cc1ccc(/C=N/Nc2nc(Cl)c(Cl)cc2Cl)s1`, the “activity change, negative = growth inhibition” value is reported as inactive: -2.17%.
With `CCCCOc1ccc(/C=C/C2=CC(C)(C)NC(=S)N2)cc1OCC` the Potency was active: 13 µM.
In the case of `O=C(CCC(=O)OCC(=O)c1ccc([N+](=O)[O-])cc1)NC1CCCCC1`, the Potency is reported as inconclusive [inhibitor, single point].
With `Cc1cc(C(O)c2ncc(-c3ccccc3Cl)[nH]2)ccc1F` (stereo not given) the Potency was inconclusive [inhibitor, single point].
In the case of `Cc1[nH]c2ccccc2c1C(=O)CSc1nnc(C2CC2)o1`, the Potency is reported as inconclusive [inhibitor, single point].
With `O=C(CSc1cn(CC(=O)N2CCCCC2)c2ccccc12)NCc1ccc(F)cc1` the Potency was inconclusive [inhibitor, single point].
In the case of `CCOC(=O)c1c(NC(=O)CSc2nnnn2C)sc(CC)c1C`, the “activity change, negative = growth inhibition” value is reported as inactive: -28%.
With `O=C(Cc1cccs1)N(c1ccc(Br)cc1)C1C=CS(=O)(=O)C1` (stereo not given) the Potency was inconclusive [inhibitor, single point].
With `COc1cccc(OC)c1OCCCOc1c(OC)cccc1OC` the Potency was inconclusive [inhibitor, single point].
In the case of `CCCN(CCC)CCCNC(=O)C1CCN(c2nc3ccc(CC)cc3s2)CC1`, the Potency is reported as active: 5.17 µM.
In the case of `S=C1NC[C@H](Cc2ccccc2)N1CCc1cccc2ccccc12`, the Potency is reported as inconclusive [inhibitor, single point].
With `OC[C@@H]1CN(Cc2ccc(F)cc2)C[C@H](n2cnc3c(N4CCOCC4)ncnc32)O1` the “activity change, negative = growth inhibition” value was inactive: -0.793%.
In the case of `CC(C)CNC(=O)NC(=O)COC(=O)c1ccccc1Sc1ccc(C(F)(F)F)cc1[N+](=O)[O-]`, the Potency is reported as inconclusive [inhibitor, single point].
In the case of `O=C(Cc1ccc(Cl)cc1)Nc1ccc(C(=O)N2CCCCC2)cc1`, the Potency is reported as inconclusive [inhibitor, single point].
For `COc1cccc(-c2cnc3c(NC=O)cc(-c4ccccc4)cn23)c1`, the Potency was active: 5.17 µM.
In the case of `Cc1ccc(S(=O)(=O)N2CCC(=O)N(CCOCc3cccc(C(F)(F)F)c3)CC2)cc1`, the Potency is reported as inconclusive [inhibitor, single point].
In the case of `CSc1cccc(NC(=O)C2CCCN(C(=O)c3cnn(-c4ccc(F)cc4)c3-n3cccc3)C2)c1` (stereo not given), the Potency is reported as active: 16.4 µM.
For `O/N=C\c1ccc2noc(-c3ccc(Cl)cc3)c2c1`, the “activity change, negative = growth inhibition” value was inactive: -27.1%.
For `COc1ccc(Br)cc1CN1CCN(S(=O)(=O)Cc2ccccc2)CC1`, the Potency was active: 8.2 µM.
For `Cc1cc(C#N)c(SCC(N)=O)nc1-c1ccc(F)cc1`, the Potency was inconclusive [inhibitor, single point].
With `NC(COCc1ccccc1)c1csc(Nc2nccc(C(F)(F)F)n2)n1` (stereo not given) the Potency was inconclusive [inhibitor, single point].
For `Cc1ccc(S(=O)(=O)C(C#N)c2nc3ccccc3nc2OCCO)cc1` (stereo not given), the Potency was inconclusive [inhibitor, single point].
For `COC(=O)C1=C(C)NC(=S)NC1c1ccc(OCC(=O)N2CC(C)OC(C)C2)c(OC)c1` (stereo not given), the “activity change, negative = growth inhibition” value was inactive: 1.05%.
In the case of `CCN(C[C@H]1N[C@@](Cc2ccccc2)(C(=O)OC)[C@H]2C(=O)N(Cc3ccccc3)C(=O)[C@@H]12)S(=O)(=O)c1ccc(OC)cc1`, the Potency is reported as inconclusive [inhibitor, partial curve].
With `O=C(N1CCN(c2ccccn2)CC1)C(Cl)(Cl)Cl` the “activity change, negative = growth inhibition” value was inactive: -17%.
In the case of `Cc1cc(C)c(C#N)c(OCC(=O)c2ccc(Br)cc2)n1`, the “activity change, negative = growth inhibition” value is reported as inactive: -22.5%.
With `CCOc1cc(C2c3c(oc4cc(C)cc(C)c4c3=O)C(=O)N2CCO)ccc1O` (stereo not given) the Potency was inconclusive [inhibitor, single point].
For `CC(C)CCOc1ccc(NC(=O)C2OC3OC(C)(C)OC3C3OC(C)(C)OC23)cc1` (stereo not given), the activity change, negative = growth inhibition was inconclusive: -33% [inhibitor].
For `C[C@@H](C(=O)CC(=O)OC(C)(C)C)[C@@H](O)c1c(F)cccc1Cl`, the “activity change, negative = growth inhibition” value was inactive: -6.34%.
With `O=C(NCc1ccccc1)N1CCN(c2ccccc2F)CC1` the Potency was inconclusive [inhibitor, single point].
In the case of `O=C1CCC(C(=O)N2CCC(CO)(Cc3ccc(Cl)cc3)CC2)=NN1`, the “activity change, negative = growth inhibition” value is reported as inactive: 1.64%.
In the case of `CC(=O)c1ccc(S(=O)(=O)Nc2ccc(S(=O)(=O)N3CCCCC3)cc2)cc1`, the “activity change, negative = growth inhibition” value is reported as inactive: 3.24%.
With `Cc1cccn2c(=O)c(/C=C(\C#N)S(=O)(=O)c3ccccc3)c(N3CCCCC3)nc12` the Potency was inconclusive [inhibitor, partial curve, poor fit].
With `Cc1ccc(-c2nc3ccc(Cl)cn3c2Nc2ccccc2)o1` the Potency was inconclusive [inhibitor, single point].
With `O=C(CC(CC(=O)c1ccccc1)c1ccco1)c1ccccc1` the Potency was inconclusive [inhibitor, single point].
In the case of `CC(C)(C)c1ccc(Oc2nc3ccccn3c(=O)c2/C=C(\C#N)c2nc3ccccc3s2)cc1`, the Potency is reported as inconclusive [inhibitor, single point].
In the case of `CS(=O)(=O)Nc1ccc(N2CCCCC2)c(Cl)c1`, the Potency is reported as inconclusive [inhibitor, partial curve].
For `COc1cccc(CN2CCN(C3CCN(c4ccccc4F)CC3)CC2CCO)c1` (stereo not given), the Potency was inconclusive [inhibitor, single point].
With `Cc1cc(C)cc(NC(=O)CSc2nc(=O)[nH]c3c2CCC3)c1` the Potency was inconclusive [inhibitor, single point].
In the case of `O=C(C[C@@H]1C/C=C/CCCC(=O)O[C@H](c2ccccc2)CNC1=O)N[C@H](CO)Cc1ccccc1`, the Potency is reported as inconclusive [inhibitor, single point].
For `CCc1ccccc1Oc1nc(NCCOC)nc2cc(-c3ccccc3)sc12`, the Potency was inconclusive [inhibitor, single point].
In the case of `COc1ccc(N2CCN(S(=O)(=O)CCNC(=O)c3cc(=O)c4ccccc4o3)CC2)cc1`, the Potency is reported as “inactive”.
For `CCCN(C(=O)CCNC(=O)c1ccc(Cl)cc1)c1c(N)n(Cc2ccccc2)c(=O)[nH]c1=O`, the “activity change, negative = growth inhibition” value was inactive: -6.07%.
